In paper PMC4336329 (PLoS ONE, 2015):
Hit rate of the full screen: of about 310,000 compounds, about 2,200 (0.71%) showed an effect of 50% or more. Effects have a minus sign here. This is one part of the list.

Biological target: human ether-à-go-go-related gene (hERG) potassium channel (human, UniProt Q12809)
Test: primary screen, population patch clamp on CHO cells stably expressing hERG

Sequence of human ether-à-go-go-related gene (hERG) potassium channel (Q12809 whole entry, looked up): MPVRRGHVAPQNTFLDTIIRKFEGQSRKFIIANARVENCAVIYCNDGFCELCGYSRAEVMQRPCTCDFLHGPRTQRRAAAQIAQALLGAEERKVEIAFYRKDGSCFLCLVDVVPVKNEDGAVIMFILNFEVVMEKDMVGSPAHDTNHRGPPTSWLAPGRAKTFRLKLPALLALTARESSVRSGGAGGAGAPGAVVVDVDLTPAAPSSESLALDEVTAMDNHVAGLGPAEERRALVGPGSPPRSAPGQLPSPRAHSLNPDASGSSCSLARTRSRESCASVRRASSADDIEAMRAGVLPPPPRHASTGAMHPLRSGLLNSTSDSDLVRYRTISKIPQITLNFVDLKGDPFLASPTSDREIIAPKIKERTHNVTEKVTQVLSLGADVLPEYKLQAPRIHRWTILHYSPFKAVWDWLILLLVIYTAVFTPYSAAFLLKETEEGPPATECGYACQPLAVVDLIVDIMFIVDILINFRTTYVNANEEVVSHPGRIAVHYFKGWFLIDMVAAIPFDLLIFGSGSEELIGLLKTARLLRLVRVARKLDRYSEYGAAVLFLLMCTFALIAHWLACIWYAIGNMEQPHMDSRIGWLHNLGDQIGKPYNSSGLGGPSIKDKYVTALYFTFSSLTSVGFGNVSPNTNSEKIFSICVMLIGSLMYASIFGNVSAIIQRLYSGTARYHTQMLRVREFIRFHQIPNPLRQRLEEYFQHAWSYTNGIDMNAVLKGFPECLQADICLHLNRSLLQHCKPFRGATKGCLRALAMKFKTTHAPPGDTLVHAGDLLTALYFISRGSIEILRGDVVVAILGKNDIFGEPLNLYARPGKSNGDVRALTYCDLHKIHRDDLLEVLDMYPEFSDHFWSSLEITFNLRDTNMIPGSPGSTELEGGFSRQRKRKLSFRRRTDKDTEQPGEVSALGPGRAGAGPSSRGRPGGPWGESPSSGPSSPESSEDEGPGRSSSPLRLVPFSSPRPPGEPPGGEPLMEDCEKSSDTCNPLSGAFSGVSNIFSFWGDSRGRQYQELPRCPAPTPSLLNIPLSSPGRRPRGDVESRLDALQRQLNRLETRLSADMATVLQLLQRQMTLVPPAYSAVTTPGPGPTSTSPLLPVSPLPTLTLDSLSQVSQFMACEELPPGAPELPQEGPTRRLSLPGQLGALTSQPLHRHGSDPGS

SMILES	hERG current change (%, negative = inhibition) at 1uM
Cc1cc(S(=O)(=O)Nc2ccccc2C(=O)O)ccc1Cl	22.7%
CCOC(=O)c1sc(NC(=O)C(C)Sc2nnc(N)s2)nc1C (stereo not shown)	9.77%
Clc1cccc(-c2csc(Nc3cccnc3)n2)c1	10.7%
O=C(c1ccccc1Br)N1CCN(Cc2ccc3c(c2)OCO3)CC1	14%
COC(=O)CCN(C(=O)c1ccc(Cl)c([N+](=O)[O-])c1)c1ccccn1	3.44%
CC(C)(C)c1cc(N)n2nc(C(C)(C)C)cc2n1	7.38%
O=S(=O)(Nc1ccc2c(c1)nc1n2CCOC1)c1ccccc1	8.78%
COc1ccc(N(CC(=O)Nc2cc(Cl)ccc2OC)S(=O)(=O)c2c(C)[nH]c(=O)[nH]c2=O)cc1	15.7%
CCCCC(=O)Nc1cccc(-c2nnc(-c3ccccc3)o2)c1	4.6%
COc1ccc(C(C(=O)Nc2ccc(F)cc2)N(C(=O)Cn2nnc3ccccc32)C2CC2)cc1 (stereo not shown)	4.31%
O=S1(=O)CCN2N=C(C34CC5CC(CC(C5)C3)C4)SC2=N1	13.1%
Cc1ccc(NC(=O)Cn2cc(C(F)(F)F)cc(Cl)c2=O)cc1Cl	14.3%
COc1ccc(/C=C2\SC(=S)N(NC(=O)c3ccncc3)C2=O)cc1OC	3.91%
CC(=O)Nc1ccc(NC(=O)C2CC(=O)N(c3cccc(C)c3C)C2)cc1 (stereo not shown)	8.29%
Cc1ccc(S(=O)(=O)NCC(=O)N(CC(=O)NCC2CCCO2)c2ccc(Cl)cc2)cc1 (stereo not shown)	1.1%
CCOP(=S)(OCC)Oc1cc(C)oc(=O)c1Cl	17.9%
C=CCNc1nc(N)c(C(=O)c2ccc3c(c2)OCO3)s1	-1.23%
O=C(O)CN1C(=O)C(=O)N(Cc2cccc(F)c2)C1=O	14.5%
COc1ccc(NC(=O)N2CCC(c3ccccc3)C2)c(OC)c1 (stereo not shown)	14.9%
CCOC(=O)c1c(C)nc(-c2ccccc2)nc1NC(=O)C(C)C	10.6%
Cc1nc(=O)c(-c2ccccc2)c(C)n1CCO	16.7%
NS(=O)(=O)c1ccc(NC(=O)CN2CCCCC2)cc1	5.28%
COc1ccc(CSc2nnc(-c3ccncc3)n2C)cc1F	20%

SMILES	hERG current change (%, negative = inhibition) at 1uM
O=C(O)CCc1ccc(-c2cccs2)n1NC(=O)c1ccc(O)cc1	8.83%
O=S(=O)(NC1CC1)c1ccc(Cl)cc1F	13.1%
CC1C(=O)NN=C1C(=O)N/N=C/c1ccco1 (stereo not shown)	15.5%
C=CCN1C(=O)N(/C=C/C)c2cccc3cccc1c23	11.6%
CCOC(=O)C1C(=O)OC(C)(C)C1C(CC)C(=O)c1c(C)cc(C)cc1C (stereo not shown)	13%
O=c1c(-c2c(O)cc(O)c3c(=O)cc(-c4ccc(O)cc4)oc23)c(-c2ccc(O)cc2)oc2cc(O)cc(O)c12	7.32%
CCOC(=O)[C@@H]1C(c2c(OC)cc(OC)cc2OC)=NO[C@@H]1C(=O)OCC	2.23%
Cc1ccc(C)c(OCC(=O)NNC(=O)C2CC2)c1	3.93%
CCN(CC)C(=O)Oc1nnc(SC(C)C)n1-c1ccc(Cl)c(Cl)c1	11.3%
S=C(Nc1ccc(Oc2ccccc2)cc1)Nc1cccnc1	6.92%
CC1(C(=O)N2CCN(Cc3ccccc3Cl)CC2)CC1(Cl)Cl (stereo not shown)	9.86%
COc1ccc(NC(=S)N2CCC(NC(=O)c3ccc(F)cc3)CC2)cc1	3.93%
COc1cccc(NCc2ccc([N+](=O)[O-])s2)c1	-0.835%
CN(C)c1ccnc(Oc2ccc(F)cc2)c1C#N	7.63%
CC(C(=O)NCCSCc1cccc(Cl)c1)N(c1ccccc1)S(C)(=O)=O (stereo not shown)	3.77%
Cn1c(=O)oc2cc(S(=O)(=O)N3CCCC(C(=O)Nc4nccs4)C3)ccc21 (stereo not shown)	-8.58%
O=C(NC1CCS(=O)(=O)C1)c1cccs1 (stereo not shown)	24.2%
Cc1cc([N+](=O)[O-])nn1CCCC(=O)Nc1cc(Oc2ccc(F)cc2)cc([N+](=O)[O-])c1	4.95%
O=C1CNC(=S)N1CCCn1ccnc1	9.37%
O=C(CN1C(=O)NC(Cc2c[nH]c3ccccc23)C1=O)NCCc1ccc(F)cc1 (stereo not shown)	11.7%
Nc1cc[n+](CC(=O)Nc2ccccc2)cc1.[Cl-]	17.1%
Cl.O=C(NN1CCN(Cc2ccccc2Cl)CC1)c1ccc(Cl)cc1	8.07%
Clc1ccc(-c2nnc(Sc3nc4ccccc4o3)c3ccccc23)cc1	5.36%

SMILES	hERG current change (%, negative = inhibition) at 1uM
Cc1cc(C)c2nc(-c3ccccn3)cc(C(=O)n3cccn3)c2c1	14.7%
O=C(CSc1c2c(nc3ccc(Cl)cc13)CCCC2)NCCCN1CCOCC1	2.77%
C=CCc1c(NCCO)nc(C)[nH]c1=O	12.9%
COc1ccc(CCN2C(=O)NC(NC(=O)CCc3ccccc3)(C(F)(F)F)C2=O)cc1OC (stereo not shown)	4.91%
COc1ccc(S(=O)(=O)N2CCC(C(=O)Nc3nccs3)CC2)cc1	10.1%
COc1ccc(CNC(=O)c2cc(=O)c3cc(C)ccc3o2)cc1	1.33%
COC(=O)c1cc(NC(=O)CSc2nncn2C)cc(C(=O)OC)c1	-7.86%
Cc1cc(C)cc(NC(=O)CSc2nc3[nH]ncc3c(=O)[nH]2)c1	7.45%
CC(O)[C@H]1CN=C(N)N1CC1CCCCC1 (stereo partly shown)	19.9%
COc1ccc(/C=C2/C(=O)OCc3cc(OC)c(OC)cc32)cc1	16.1%
CCN1CCN(CCCNC(=O)c2cc3sccc3n2CC)CC1	-3.68%
O=C(NNC(=S)Nc1ccccc1)c1ccc(O)cc1	15.2%
CC1CC(C)(C)CC2(C1)NC(=O)N(CC(=O)N(Cc1ccccc1)c1ccccc1)C2=O (stereo not shown)	12.5%
CC1CC(C)CN(CC(O)COCc2ccccc2)C1.Cl (stereo not shown)	8.75%
CCCCCC(=O)N/N=C/c1ccco1	5.03%
COc1ccc(N2CCN(C(=O)CNC(=O)c3ccc(Br)o3)CC2)cc1	9.23%
O=C(O)c1cccc(N2C(=O)C3CC=C(Cl)CC3C2=O)c1 (stereo not shown)	8.2%
O=C(/C=C/c1c[nH]c2ccccc12)c1ccccc1	14.3%
O=c1[nH]cnc2sc3c(c12)CCC3	-3.49%
CC(NC(=O)c1c(F)cccc1Cl)c1ccc(-n2ccnc2)cc1 (stereo not shown)	10.5%
CSc1nc2ccc(NC(=O)C3CC(=O)N(Cc4ccco4)C3)cc2s1 (stereo not shown)	-17.2%
C1=C[C@@H]2CCN(Cc3ccccc3)Cc3cccc(c32)C1	-6.63%
COc1cccc(C(O)c2nccn2Cc2ccccc2)c1OC (stereo not shown)	10.2%

SMILES	hERG current change (%, negative = inhibition) at 1uM
COc1ccc(C(C#N)N2N=C(C)CC2c2ccccc2)cc1OC (stereo not shown)	5.43%
COc1ccc(CCNC(=O)C2CCC(CNS(=O)(=O)c3ccccc3)CC2)cc1OC (stereo not shown)	1.8%
C=CCc1ccc(OCCOc2ccc(/C=N/n3cnnc3)cc2OCC)c(OC)c1	8.83%
CCc1nc(SCC(=O)Nc2nc3c(s2)CCCC3)c2ccccc2n1	-5.26%
CCOC(=O)c1cc(C)sc1NC(=O)CN1CCN(C(=O)C2CCCO2)CC1 (stereo not shown)	0.585%
CCCCOc1ccc(C(=O)N/C(=C/C=C/c2ccccc2)C(=O)NC)cc1	-24.7%
CCOC(=O)N1CCC(N2Cc3cccc(C(=O)Nc4ccc(S(=O)(=O)N(CC)CC)cc4)c3C2=O)CC1	16.3%
COc1ccccc1C1=NC(c2ccccc2)CN1c1ccccc1 (stereo not shown)	6.78%
CS(=O)(=O)N1CCCC(C(=O)NCCCN2CCOCC2)C1 (stereo not shown)	-5.08%
CC(C)CNS(=O)(=O)c1ccc(CCC(=O)Nc2ccc3c(c2)OCCO3)cc1	16.6%
COc1cc2c(cc1OC)CN(CC(=O)Nc1ccccc1C#N)CC2	-1.89%
COc1ccccc1OCCNC(=O)c1cccc(S(=O)(=O)N2CCN(C)CC2)c1	8.31%
O=C(N/N=C/c1cn(-c2ccccc2)nc1-c1cccnc1)c1cccnc1	-26.3%
Cc1nc(-c2coc3cc(O)c(C)cc3c2=O)cs1	8.07%
NC(=O)c1c(NC(=O)CSc2nc(N)cc(=O)[nH]2)sc2c1CCCC2	11.8%
O=C(O)Cc1ccc2[nH]c3ccc(CC(=O)O)cc3c2c1	10.2%
O=C1CC(c2nc3ccccc3[nH]2)CN1c1cccc(C(F)(F)F)c1 (stereo not shown)	2.47%
O=C1c2[nH]nc(-c3ccccc3O)c2C(c2ccc(F)cc2)N1CC1CCCO1 (stereo not shown)	9.86%
COc1ccc(-n2nnnc2SCC(=O)c2cc3ccccc3o2)cc1	-0.102%
C=C(C)COc1ccc(-c2nc(N)nc(C)c2-c2ccc(OC)cc2)c(O)c1	4.2%
CCn1cc(C(=O)NC2CCCCC2)c(=O)c2ccc(C)nc21	10.8%
CC1(C)Cc2c(sc3c2c(=N)n(Cc2ccco2)c(=O)n3CC(=O)Nc2cccc(Cl)c2)CO1	11.9%
